# Measured values as given in PMC4336329 (PLoS ONE, 2015).
# Among all 310,000 compounds or so, about 2,200 (0.71%) showed an effect of 50% or more. Effects have a minus sign here. The list shows a part of the results. Where a SMILES comes first, the peptide text is derived from it. The star is where a group is joined. Cbz = O=C(OCc1ccccc1)*
# Target: human ether-à-go-go-related gene (hERG) potassium channel (human, UniProt Q12809)
# Experiment: primary screen, population patch clamp on CHO cells stably expressing hERG
# Sequence of human ether-à-go-go-related gene (hERG) potassium channel (Q12809 whole entry, looked up): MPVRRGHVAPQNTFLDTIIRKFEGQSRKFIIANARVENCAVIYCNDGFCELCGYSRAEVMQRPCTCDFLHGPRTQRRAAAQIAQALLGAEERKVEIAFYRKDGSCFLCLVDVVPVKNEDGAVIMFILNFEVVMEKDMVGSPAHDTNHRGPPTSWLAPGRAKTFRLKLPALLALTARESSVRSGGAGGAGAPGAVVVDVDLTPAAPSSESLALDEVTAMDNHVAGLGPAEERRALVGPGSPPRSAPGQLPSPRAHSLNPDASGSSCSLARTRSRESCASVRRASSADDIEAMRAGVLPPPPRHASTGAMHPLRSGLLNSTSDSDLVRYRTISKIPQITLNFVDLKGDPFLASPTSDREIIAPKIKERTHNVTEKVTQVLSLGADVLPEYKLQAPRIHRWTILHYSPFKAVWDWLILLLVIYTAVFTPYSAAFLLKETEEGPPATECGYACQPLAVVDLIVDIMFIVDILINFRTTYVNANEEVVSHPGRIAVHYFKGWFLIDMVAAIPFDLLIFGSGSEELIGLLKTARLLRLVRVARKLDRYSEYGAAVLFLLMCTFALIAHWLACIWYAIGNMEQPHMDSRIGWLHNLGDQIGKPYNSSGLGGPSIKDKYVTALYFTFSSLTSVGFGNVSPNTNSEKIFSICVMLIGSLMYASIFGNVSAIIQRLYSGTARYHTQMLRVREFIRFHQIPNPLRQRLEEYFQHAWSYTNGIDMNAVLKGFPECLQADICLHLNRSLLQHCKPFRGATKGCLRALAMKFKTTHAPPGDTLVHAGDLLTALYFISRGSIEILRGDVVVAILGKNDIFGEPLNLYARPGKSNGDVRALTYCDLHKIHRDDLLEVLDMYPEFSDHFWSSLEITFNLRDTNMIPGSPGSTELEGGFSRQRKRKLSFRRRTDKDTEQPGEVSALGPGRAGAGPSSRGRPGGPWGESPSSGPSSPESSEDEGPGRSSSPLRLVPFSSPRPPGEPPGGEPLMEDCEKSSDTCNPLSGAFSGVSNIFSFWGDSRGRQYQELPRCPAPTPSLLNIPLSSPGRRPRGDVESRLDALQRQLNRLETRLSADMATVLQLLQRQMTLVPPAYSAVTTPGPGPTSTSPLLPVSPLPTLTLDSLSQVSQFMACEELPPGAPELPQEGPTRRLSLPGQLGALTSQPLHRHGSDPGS
row,SMILES,"hERG current change (%, negative = inhibition) at 1uM [%]"
1,O=C(NCCc1ccccc1F)C1CCCN1S(=O)(=O)c1ccc2ccccc2c1 (stereo not drawn),-4.4
2,Cc1noc(C)c1C(=O)Nc1nc(-c2ccc([N+](=O)[O-])cc2)cs1,8.89
3,CCN(CCCNC(=O)c1c(C)cc(=O)oc1C)c1ccccc1,-20.4
4,COc1ccc(/C=C2\SC(=S)N(CCCC(=O)Nc3cccc(C(=O)O)c3)C2=O)cc1OC,9.24
5,Cl.Clc1ccc(CN2C3=NCCCN3c3ccccc32)c(Cl)c1,-28.2
6,Cc1cc([N+](=O)[O-])nn1CC(=O)NC(C)c1ccccc1 (stereo not drawn),7.18
7,CC(=O)c1ccc2noc(-c3ccccc3)c2c1,9.65
8,O=c1[nH]c(=O)n(Cc2ccco2)c2c1C(C(F)(F)F)(C(F)(F)F)N=C(CCC1CCCCC1)N2,-2.96
9,CCC(C)n1nnc2c(=O)oc3ccccc3c21 (stereo not drawn),-5.7
10,CCCOc1ccc(Cc2c(Cl)nc(SC)nc2OC)cc1,14.2
11,CC(C)Cc1nc(N2CCCCC2)c(C#N)c2c1CCC2,3.68
12,CC(=O)N1CCC(N(CCN2CCOCC2)C(=S)Nc2ccc(C)c(C)c2)CC1,5.17
13,Cc1cccc(Cn2c(=O)n(Cc3ccco3)c(=O)c3ccccc32)c1,10.5
14,N/C(=N\NC(=O)c1sccc1OCc1ccc(Cl)cc1Cl)c1ccccn1,11.4
15,C=CCOc1c(OC)cc(/C=N/Nc2cccc(C(=O)O)c2)c(Br)c1Br,17.5
16,COCc1nnc(NC(=O)c2ccc(NC(=O)C(C)C)cc2)s1,8.51
17,Cc1cc(N2CCCC2)nc2ccc(NC(=S)NC(C)C)cc12,-40.8
18,COc1ccc(N=C2NC(=O)/C(=C\c3ccco3)S2)cc1,15.1
19,Cc1cc(C)cc(OCC(=O)Nc2nonc2NC(=O)COc2cc(C)cc(C)c2)c1,2.96
20,Cc1[nH]c2ccccc2c1/C=N/NC(=O)c1cccc([N+](=O)[O-])c1,15.3
21,Cc1occc1C(=O)NN=C1C2CC3CC(C2)CC1C3,-7.16
22,CCOC(=O)N1CCc2c(sc3nc[nH]c(=O)c23)C1,6.97
23,COc1cc(/C=C(\C#N)C(N)=O)ccc1OCc1c(C)no[n+]1[O-],-2
24,CCC(C)C(NC(=O)OCc1ccccc1)C(=O)NC(Cc1ccc(O)cc1)C(=O)OC (stereo not drawn) (Cbz-Ile-Tyr-OMe; configuration not given here),11.3
